# Measured values from PubChem BioAssay AID624417 (National Center for Advancing Translational Sciences (NCATS), 2012).
# Among all 410,000 compounds or so, about 6,400 (1.6%) were called active. The inconclusive results got no clear call from the source; some entries with a clear call stand among them for comparison. Calls follow the shape of the dose curve; as a rule, active = well fitted inhibition curve with a large enough effect; inconclusive = small, poorly fitted or top-dose-only effect; inactive = no such curve, though single readings can be large or run the other way. No potency is given beside an inconclusive call; the fits are too rough.
# Molecular target: Glucagon-like peptide 1 receptor (Homo sapiens) (UniProt P43220)
# Assay: qHTS of GLP-1 Receptor Inverse Agonists (Inhibition Mode); also: nearly all actives have a fitted effect of over 55% in size
# Settings: HEK293 GLP-1R CRE-luciferase, luminescence, 24 h, GLP-1R form is constitutively active; series mostly up to 38.3 µM
# Method in brief: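 Cells are plated, allowed 12 hours at 37 deg C, then treated with compounds for 24 hr before luciferase detection reagent is added and luminescence is read after 12 min at room temperature. The HEK293 line carries constitutively active GLP-1R with a cAMP-responsive reporter.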
# Potency is read from the fitted curve at half-maximal effect; tags tell the direction and shape of the fitted curve.
# UniProt P43220, sequence (P43220 whole entry, looked up): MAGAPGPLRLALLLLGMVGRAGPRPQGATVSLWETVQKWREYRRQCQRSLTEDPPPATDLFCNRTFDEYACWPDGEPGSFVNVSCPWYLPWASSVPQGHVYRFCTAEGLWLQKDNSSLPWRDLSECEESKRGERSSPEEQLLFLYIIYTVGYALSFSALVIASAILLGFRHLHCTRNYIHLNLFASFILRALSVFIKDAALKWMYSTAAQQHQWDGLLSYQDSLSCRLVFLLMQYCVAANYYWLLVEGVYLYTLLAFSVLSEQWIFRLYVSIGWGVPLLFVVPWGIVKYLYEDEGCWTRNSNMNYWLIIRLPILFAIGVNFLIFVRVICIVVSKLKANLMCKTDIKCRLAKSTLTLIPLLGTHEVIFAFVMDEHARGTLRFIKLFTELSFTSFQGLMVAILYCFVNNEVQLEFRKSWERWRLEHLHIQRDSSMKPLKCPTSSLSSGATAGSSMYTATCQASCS
row,SMILES,Potency
1,CC(=O)c1c(C)nc2ccc([N+](=O)[O-])cc2c1-c1ccccc1,"inconclusive [inhibitor, partial curve, poor fit]"
2,Cc1cc(Br)cn2c(Cc3ccccc3C(F)(F)F)c(-c3ccc(Cl)cc3)nc12,inactive
3,O=C(Nc1ccc2ccccc2n1)c1ccccc1,"inconclusive [inhibitor, single point]"
4,Nn1cnc2c(c1=O)C1(CCCCC1)Cc1ccccc1-2,inactive
5,COc1ccc(C(=O)Nc2noc3ccccc23)cc1,"inconclusive [inhibitor, single point]"
6,Cc1cccc(C2=NN(c3ccccc3)[C@@H](C(=O)N3CCOC3=O)[C@@H]2c2ccc([N+](=O)[O-])cc2)c1,"inconclusive [inhibitor, partial curve, poor fit]"
7,Cc1ccc(Cc2cnc(NC(=O)/C(C#N)=C/c3ccc(-c4ccccc4[N+](=O)[O-])o3)s2)cc1,inactive
8,Cc1ccccc1CC1CCN(CCCNC(=O)Nc2ccccc2)CC1,active: 10 µM
9,O=C(Nc1c2c(nn1-c1ccc(Cl)cc1)CS(=O)(=O)C2)c1ccccc1F,inactive
10,O=C(NCCc1nc2ccccc2n1CCCOc1ccc(Cl)cc1)C1CCCCC1,"inconclusive [inhibitor, single point]"
11,C=CCn1c(C23CC4CC(CC(C4)C2)C3)n[nH]c1=S,"inconclusive [inhibitor, partial curve, poor fit]"
12,Cc1ccc(C(O)(C(=O)NNc2ccc3ccccc3n2)c2ccc(C)cc2)cc1,"inconclusive [inhibitor, single point]"
13,Cc1ccnc2c1ccc1ccccc12,inactive
14,Cc1nn2c(C)c(C(=O)NCC(C)c3ccccc3)cnc2c1-c1ccccc1 (stereo unspecified),"inconclusive [inhibitor, partial curve, poor fit]"
15,CCOc1ccc(S(=O)(=O)N2CCCC(C(=O)N3CCN(CC)CC3)C2)cc1Cl (stereo unspecified),"inconclusive [inhibitor, full curve, poor fit]"
16,CCOC(=O)C1(CCc2ccccc2)CCN(C(=O)CN2CCOC2=O)CC1,inactive
17,CC(=O)NC(c1cccc(F)c1)c1nc(-c2csc3ccccc23)cs1 (stereo unspecified),"inconclusive [inhibitor, single point]"
18,Fc1ccc(Cn2c(-c3cccc(Br)c3)nc3ccccc32)cc1,"inconclusive [inhibitor, partial curve, poor fit]"
19,N#Cc1ccc(Nc2nc(-c3ccc(O)cc3O)cs2)cc1C(F)(F)F,"inconclusive [inhibitor, single point]"
20,OCC1(CCOc2ccccc2)CCN(Cc2cn[nH]c2-c2ccc(F)cc2)CC1,"inconclusive [inhibitor, partial curve, poor fit]"
21,Cc1cc(C(=O)COC(=O)c2nccnc2N)c(C)n1C,"inconclusive [inhibitor, partial curve, poor fit]"

row,SMILES,Potency
1,O=C(Nc1nnc(-c2ccco2)o1)c1ccc(N2C(=O)CCC2=O)cc1,inactive
2,O=C(N/N=C/c1ccc([N+](=O)[O-])cc1)c1cc(C2CC2)nc2ccccc12,"inconclusive [inhibitor, partial curve, poor fit]"
3,CCN(CC(=O)Nc1ccc(NC(C)=O)cc1)c1ccc(C(F)(F)F)cn1,inactive
4,CC1Cc2cc(S(=O)(=O)CCC(=O)Nc3ccc(F)c(Cl)c3)ccc2N1C(=O)C1CC1 (stereo unspecified),"inconclusive [inhibitor, partial curve, poor fit]"
5,COc1ccc(C2CC(c3ccccc3)=NN2c2ccc(S(N)(=O)=O)cc2)cc1OC (stereo unspecified),"inconclusive [inhibitor, partial curve, poor fit]"
6,NC(CSC(c1ccccc1)(c1ccccc1)c1cccc2ccccc12)C(=O)O (stereo unspecified),"inconclusive [inhibitor, partial curve, poor fit]"
7,OCCNc1nc(SCc2ccccc2)nc2sc3c(c12)CCC3,"inconclusive [inhibitor, single point]"
8,O=S(=O)(Nc1nc2ccccc2s1)c1ccc(Br)s1,"inconclusive [inhibitor, partial curve]"
9,Cc1ccccc1S(=O)(=O)Nc1ncc(C(F)(F)F)cc1Cl,"inconclusive [inhibitor, full curve]"
10,CCN1CCN(CC(=O)n2c3c(c4ccccc42)CC(C)CC3)CC1 (stereo unspecified),"inconclusive [inhibitor, partial curve, poor fit]"
11,O=C(Nc1ccc(Cl)cc1)Nc1ccc(N2CCOCC2)cc1,"inconclusive [inhibitor, full curve]"
12,COc1ccc(-c2[nH]ncc2-c2csc(C)n2)c(O)c1,inactive
13,O=C(CCC(C(=O)c1ccccc1)c1ccccc1)c1ccccc1 (stereo unspecified),"inconclusive [inhibitor, partial curve, poor fit]"
14,O=C(NCCc1ccccc1)c1ccc2c(c1)OCO2,"inconclusive [inhibitor, full curve, poor fit]"
15,Cc1ccc(C(=O)O/N=C(\N)c2ccccn2)cc1Cl,"inconclusive [inhibitor, partial curve, poor fit]"
16,COc1ccc(NS(=O)(=O)c2cccc(C(=O)N3CCCC3)c2)cc1,"inconclusive [inhibitor, partial curve, poor fit]"
17,Cc1ccc(-n2nnnc2CNC(=O)c2ccc3c(c2)OCO3)cc1C,"inconclusive [inhibitor, single point]"
18,O=C(CN1CCCCC1)Nc1ccccc1Oc1ccccc1,"inconclusive [inhibitor, full curve, poor fit]"
19,CC(C)C(OC(=O)c1ccccc1)c1nccc2ccccc12 (stereo unspecified),"inconclusive [inhibitor, partial curve, poor fit]"
20,O=S(=O)(c1ccccc1)n1ccc2ccccc21,"inconclusive [inhibitor, single point]"
